Read counts are not given, so values of variants with three or more changes are uncertain.
B1: CPEB3 Ribozyme (parent)
chain: UAACAGGGGGCCACAGCAGAAGCGUUCACGUCGCAGCCCCUGUCAGAUUCUGGUGAAUCUGCGAAUUCUGCUGUAUAUCUC

Variants of: B1
Test: self-cleavage, relative activity (ratio to wild type); higher = more cleavage; in vitro, sequencing
Outline: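 Libraries of CPEB3 self-cleaving ribozyme mutants came from rounds of error-prone PCR and carried barcodes, which DNA sequencing matched to variants. In vitro transcription used T7 RNA polymerase at 37°C for 5 hours, with a further 15 min in DNase I before EDTA stopped the reaction; the ribozymes cleaved during both steps. The RNA was reverse transcribed with template switching and sequenced on Illumina. Relative activity is the cleaved/total read fraction of a variant divided by that of the unmutated ribozyme, averaged over three batches with at least 5 reads.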

| Variant | self-cleavage |
| --- | --- |
| A13U A15G U26A A28G U41A U49C | 0.08 |
| A13U U43C U74C | 1.06 |
| A13U A18U U25C U43C C59A U67C | 0.1 |
| C14A A21G A64U U69A | 0.08 |
| A13U G16A A20U | 0.19 |
| A13U A28G C32U | 0.09 |
| A13U G16A U54C A64U | 0.13 |
| A13U U26A A35G U58C U66C U67A U78G | 0.49 |
| A13U A35U U43C C44U G53A | 0.09 |
| A13U G53A U58C U60C | 0.36 |
| A13U A56U U66G | 0.28 |
| A13G U26A C39G U60A U78C | 0 |
| A13U U25C U80C | 0.33 |
| A13U U31A A65U | 0.1 |
| A13G U41A A64G | 0.13 |
| A13G U31C U72G | 0.17 |
| A13U U41C A64G U80A | 1 |
| A13U U26A A57G U72A | 0.2 |
| A13U A20G U67A U80C | 0.99 |
| A13U U26A A57G | 0.9 |
| A13U A20G G36U A64G | 0.16 |
| A13U U25C A28C U72C U80G | 0.11 |
| A13U U51C U60C U69A U72A A77U | 0.32 |
| A13U A28G U54A G61U G63C U69C | 0.23 |

| Variant | self-cleavage |
| --- | --- |
| A13U U51C A57G U60C | 0.34 |
| A13G U26C G30A U41C U54C G73A | 0.06 |
| C14A A47G A64C | 0.34 |
| A13U A21G U26C U80C | 0.39 |
| C14A A18U A28G | 0.64 |
| A13U C27U A77G | 0.24 |
| A13U A15U A28G U41G A56U A64G U78C | 0.11 |
| A13U A15U G24C U31C A56G A57U U69A | 0.05 |
| A13U U31A U48C | 0.27 |
| A13U U49A A64G | 0.6 |
| A13G U69A U76A | 0.39 |
| A13U A35G U41C A57G C62U A64U U66C | 0.76 |
| A13U A18G A20U A28U G30A | 0.25 |
| A13G U51A G63A U69C U78A | 0.44 |
| A13U A18G A47G U69C | 1.26 |
| A13U A21U U25C U41A U49C A57G | 0.09 |
| A13U A64G U67C U69C | 0.18 |
| A13U A21G U31C U51C U67A A77G U78A | 0 |
| A13U U41C A65U | 0.34 |
| A13G U26C A28U U60C U66C | 0.05 |
| A13G U51C A64G U72C | 0.43 |
| A13U A15G A45U U54C A56G U72G | 0.1 |
| A13G U48C U78C | 0.42 |
| A13U A28G C40U G53C U78G | 0.56 |

| Variant | self-cleavage |
| --- | --- |
| A13U A18U U54C | 0.39 |
| A13U U41A A45G | 0.16 |
| A13U A56U A75U U76C | 1 |
| A13U U60C U66C U80A | 0.19 |
| A13U G16C U41A U51A A56G A57G | 0.03 |
| A13G U41A A45U A57G U69C U78C | 0.11 |
| A13U A21G U69C A75G | 0.07 |
| A13U A15G A20G U26A U48C | 0.04 |
| A13U A35G A56G | 1.29 |
| A13U A47G U60C U80C | 0.3 |
| A13U A35G G61C U66A U69C | 0.78 |
| A13G U49C U51A U69A U78G | 0.15 |
| A13G U25G A56G U60A A64U U74C | 0.1 |
| A13U A35U C40G U41C A47G U60C A75C | 0.07 |
| A13U G52A U67A | 0.61 |
| A13U U51A C71U | 1.02 |
| A13U U43C U60A U69A | 0.13 |
| A13U U25C U41A U48C U74A | 0.12 |
| A13G U31C C44U U66C | 0.11 |
| A13U C14U U58A U66C | 0.31 |
| C14A A20G C27A C38U A45G U67A | 0.1 |
| A13U G19U C40U U48C U54A A64G U72A | 0.07 |
| A13U A28G U31C C40U U41A | 0.08 |
| A13U A18G C38U C50A U54A U72C | 0.11 |

| Variant | self-cleavage |
| --- | --- |
| A13U A57G C59G A65G U76A | 0.17 |
| A13U C68U U80C | 1.21 |
| A13U G33U U43A U60C A64G | 0.13 |
| A13U U31C A45G U51C A75G | 0.12 |
| A13U A20G G33C U69C U78A | 0.05 |
| A13U A35U C44A U51A U69A U74A A75U | 0.12 |
| A13G U43C U60G | 0.25 |
| A13U A18G U43C U69C U76C | 1.14 |
| A13U U43A A57G U78C | 0.99 |
| A13U U25C C29G C40G U72A | 0.07 |
| A13U A21G U25C | 0.08 |
| A13U C14U A45G | 1.16 |
| A13U C29U A57U U60C U72C | 0.08 |
| A13U A18U U43C A64G U66C U80C | 0.06 |
| A13U C17U A28U U43C U48C A64G | 0.05 |
| A13U C17U A35G U51A U69C | 0.8 |
| A13U A20U U41C U72C | 0.23 |
| A13U A21G U25C U49C U51A G70C | 0.03 |
| A13U U31A U43C A64U A65G C79U | 0.06 |
| A13U U26C U49G U80C | 0.17 |
| A13U U25C U78C | 0.18 |
| A13U U26A U41A A56G | 0.21 |
| A13G U41C C62U A64U U69C | 0.19 |
| A13G U69C U80A | 0.43 |

| Variant | self-cleavage |
| --- | --- |
| A13G U49A U60C U69C | 0.14 |
| A13U A77G U80A | 1.14 |
| A13U U25C C39U | 0.27 |
| A13U C29U G52A A75G | 0.6 |
| A13U U25A U66C U72C | 0.14 |
| A13U U31A C38A | 0.38 |
| A13G U49C A57G A65G | 0.03 |
| A13U A18C A35G C40U G55U U69C U80C | 0.15 |
| A13U C37U A56U | 0.21 |
| A13U U25C C44A G53U A65G U76C | 0.05 |
| A13U A15U U67A | 0.28 |
| A13U A15U U67C | 0.16 |
| A13U U31C A65G G73A | 0.58 |
| A13U G52A C62A | 0.19 |
| A13U U31A A35U | 0.14 |
| A13G U58A G73U | 0.3 |
| A13U A20U A21G A35G U69A | 0.11 |
| C14A A35U U54C | 0.97 |
| A13U A15G U26A A28U U49A A56U A57G | 0.31 |
| A13U C27U G33A G36C U67C C71U U80C | 0.06 |
| A13G U48C A56G U74C | 0.2 |
| A13G U54C U80C | 1.05 |
| A13U A18U G30A U76A | 0.24 |
| A13U C32A U66C | 0.13 |

| Variant | self-cleavage |
| --- | --- |
| A13U U72C U74C | 1.19 |
| A13U A15G U80C | 1.16 |
| A13U A18C A20G U25A U41C G46A | 0.22 |
| A13U U51A A77U | 1.28 |
| A13G U72C U80C | 0.93 |
| A13U A20G A64G U78C | 0.55 |
| A13U U43A G63A | 1.09 |
| A13G U31A A47G U67A U76C | 0.15 |
| A13G U43C A64U | 0.57 |
| A13U U26G A56G U76A | 0.24 |
| A13G U51C U54C | 0.69 |
| A13U C38U C40U A64G U67C | 0.13 |
| A13U A35G U43C U51C U54C U80C | 1.18 |
| A13U G24A U26C U49A U54A U76C | 0.09 |
| A13U A18G U43C U58C | 0.17 |
| A13G U26C U66C U69A | 0.08 |
| A13U A18G A20G | 0.58 |
| A13G U41A U60C | 0.14 |
| A13U U54A U72C | 1.27 |
| A13U A20G A45U A77U | 0.3 |
| A13U A35G U41C A47U G70A | 0.47 |
| A13U A28U A56G | 0.47 |
| A13G U48C U60C U67C A75G U78C | 0.12 |
| A13U A35G A45C A47U U51C | 0.2 |

| Variant | self-cleavage |
| --- | --- |
| A13U G19C U26A A47U U51A A56G C79A | 0.19 |
| A13G U26C U49A U67C | 0.07 |
| A13U A21G U54C | 0.48 |
| A13U U25C C40A | 0.14 |
| A13G U67C U80C | 0.19 |
| A13U G33A A35G U41C | 0.16 |
| A13G U31A U41C A45G U58C U72C U76C | 0.06 |
| A13G U48C G55A G63U U72C U76C | 0.24 |
| A13U U31G U60C | 0.1 |
| A13G U41C A56G | 0.8 |
| A13U A45U G53A U60C | 0.34 |
| A13U C32U A56G | 0.13 |
| A13U U25A U54A U60C U66C | 0.11 |
| A13U A21U U26C A28U A64C U80C | 0.07 |
| A13U C14U A35G A45G A56U U66C | 0.68 |
| A13U U69G U78G | 0.89 |
| A13U U43C U51A | 1.12 |
| A13U A35C C38A U43C G52C | 0.11 |
| A13U C40U U80C | 1.16 |
| A13G U41A A56G | 0.12 |
| A13U A20G G22A G46U U72C U76A | 0.05 |
| A13G U25G U54A A56G U58C | 0.07 |
| A13U A15G A64G U78A | 0.74 |
